Measurements published in the supplement of paper PMC10369915.
This is one part of the list. Rule as the data show it: active = 3.2 or more and inactive = the rest. Most of these values are background signal.

B1: RNASEH2A_Y210 (peptide)
chain: DYGSGYPNDPK
B2: RNF213_Y4141 (peptide)
chain: KLLLKYSFHDV
B3: RNLS_Y190_R193P (peptide)
chain: LEAVSYSSPYA
B4: RNLS_Y190_R193P_YF (peptide)
chain: LEAVSYSSPFA
B5: RNLS_Y190_YF (peptide)
chain: LEAVSYSSRFA
B6: ROBO1_Y932 (peptide)
chain: GLTSTYAGIRK
B7: ROCK2_Y1197_S1194P (peptide)
chain: EQPNPYMVLDI
B8: ROR2_Y488 (peptide)
chain: RFGKVYKGHLF
B9: ROR2_Y488_G490A (peptide)
chain: RFGKVYKAHLF
B10: ROR2_Y624 (peptide)
chain: RNVLVYDKLNV
B11: ROR2_Y646_YF (peptide)
chain: FAADFYKLLGN
B12: ROR2_Y824_V819I (peptide)
chain: IPVNGYQPVPA
B13: ROS1_Y144 (peptide)
chain: LGSWTYTKTVS
B14: ROS1_Y2110 (peptide)
chain: LARDIYKNDYY
B15: ROS1_Y2110_A2106T (peptide)
chain: LTRDIYKNDYY
B16: ROS1_Y2110_A2106T_YF (peptide)
chain: LTRDIYKNDFF
B17: ROS1_Y2110_YF (peptide)
chain: LARDIYKNDFF
B18: ROS1_Y2227_S2229C (peptide)
chain: FLNSIYKCRDE
B19: ROS1_Y2323 (peptide)
chain: EKQVAYCPSGK
B20: RP1_Y199_D202E (peptide)
chain: PVVKLYATEGR
B21: RP9_Y142 (peptide)
chain: HEDPMYDIIRD
B22: RPA2_Y14_G15R (peptide)
chain: YGSSSYRGAGG
B23: RPA2_Y14_Y14S (peptide)
chain: YGSSSSGGAGG
B24: RPA2_Y9 (peptide)
chain: SGFESYGSSSY
B25: RPA2_Y9_Y14S (peptide)
chain: SGFESYGSSSS
B26: RPAP3_Y567 (peptide)
chain: SPDMLYQYLKQ
B27: RPAP3_Y567_D564Y (peptide)
chain: SPYMLYQYLKQ
B28: RPAP3_Y567_YF (peptide)
chain: SPDMLYQFLKQ
B29: RPAP3_Y569 (peptide)
chain: DMLYQYLKQIE
B30: RPAP3_Y569_D564Y (peptide)
chain: YMLYQYLKQIE
B31: RPAP3_Y569_D564Y_YF (peptide)
chain: FMLFQYLKQIE
B32: RPE65_Y368_Y368H (peptide)
chain: PEVRRHVLPLN
B33: RPE65_Y89_R91P (peptide)
chain: IRTDAYVPAMT
B34: RPE65_Y89_R91W (peptide)
chain: IRTDAYVWAMT
B35: RPF2_Y109 (peptide)
chain: VIGRMYDYHVL
B36: RPF2_Y109_G106V (peptide)
chain: VIVRMYDYHVL
B37: RPF2_Y109_G106V_YF (peptide)
chain: VIVRMYDFHVL

Assays:
Experiment in all cases: enrichment score (SH2-bound / input frequency) (ratio); bacterial display of known human phosphotyrosine sites (pTyr-Var adds point mutants) read by sequencing; higher = stronger binding; tyrosines were phosphorylated by kinases first
Details in all cases: peptide library: pTyr-Var
SHP2 C-SH2 domain E139D = molecular target: SHP2 C-SH2 domain E139D
[1] = molecular target: SHP2 C-SH2 domain wild-type
SHP2 N-SH2 domain L43F = molecular target: SHP2 N-SH2 domain L43F
SHP2 N-SH2 domain T42A = molecular target: SHP2 N-SH2 domain T42A
SHP2 N-SH2 domain T52S = molecular target: SHP2 N-SH2 domain T52S
[2] = molecular target: SHP2 N-SH2 domain wild-type
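Also: displayed peptides selected on beads carrying the immobilized SH2 domain, with library peptides lacking any tyrosine serving as negative controls.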

| Binder | enrichment score (SHP2 C-SH2 domain E139D) | enrichment score [1] | enrichment score (SHP2 N-SH2 domain L43F) | enrichment score (SHP2 N-SH2 domain T42A) | enrichment score (SHP2 N-SH2 domain T52S) | enrichment score [2] |
| --- | --- | --- | --- | --- | --- | --- |
| B1 | inactive: 0.602 | inactive: 0.591 | inactive: 0.694 | inactive: 0.473 | inactive: 0.841 | inactive: 0.73 |
| B2 | inactive: 2.3 | inactive: 2 | inactive: 1.99 | inactive: 1.78 | inactive: 2.11 | inactive: 2.29 |
| B3 | inactive: 0.731 | inactive: 1.31 | inactive: 1.15 | inactive: 1.88 | inactive: 1.2 | inactive: 0.742 |
| B4 | inactive: 0.736 | inactive: 1.43 | inactive: 2.3 | active: 3.92 | inactive: 2.78 | inactive: 0.726 |
| B5 | inactive: 0.767 | inactive: 0.788 | inactive: 0.77 | inactive: 0.648 | inactive: 0.727 | inactive: 0.759 |
| B6 | inactive: 1.24 | inactive: 3.1 | inactive: 0.603 | inactive: 0.669 | inactive: 0.662 | inactive: 0.605 |
| B7 | inactive: 0.574 | inactive: 0.511 | inactive: 0.631 | inactive: 1.44 | inactive: 0.783 | inactive: 0.722 |
| B8 | inactive: 0.608 | inactive: 0.64 | inactive: 0.84 | inactive: 0.545 | inactive: 0.598 | inactive: 0.71 |
| B9 | inactive: 0.8 | inactive: 0.881 | inactive: 0.935 | inactive: 0.469 | inactive: 0.843 | inactive: 0.831 |
| B10 | inactive: 0.834 | inactive: 0.783 | inactive: 0.799 | inactive: 0.7 | inactive: 0.605 | inactive: 0.723 |
| B11 | inactive: 0.58 | inactive: 0.595 | inactive: 0.579 | inactive: 0.481 | inactive: 0.563 | inactive: 0.863 |
| B12 | inactive: 0.59 | inactive: 0.662 | inactive: 0.789 | inactive: 0.661 | inactive: 0.778 | inactive: 0.489 |
| B13 | inactive: 0.912 | inactive: 0.754 | inactive: 0.994 | inactive: 0.809 | inactive: 0.757 | inactive: 0.81 |
| B14 | inactive: 1.08 | inactive: 1.22 | inactive: 0.766 | inactive: 1 | inactive: 1.1 | inactive: 1.1 |
| B15 | inactive: 0.87 | inactive: 0.926 | inactive: 1.14 | inactive: 0.979 | inactive: 1.11 | inactive: 1.12 |
| B16 | inactive: 0.909 | inactive: 0.728 | inactive: 0.91 | inactive: 1.03 | inactive: 0.735 | inactive: 0.935 |
| B17 | inactive: 0.891 | inactive: 0.776 | inactive: 1.13 | inactive: 1.15 | inactive: 0.716 | inactive: 0.877 |
| B18 | inactive: 1.01 | inactive: 1.17 | inactive: 1.15 | inactive: 1.02 | inactive: 1.05 | inactive: 1.13 |
| B19 | inactive: 0.567 | inactive: 0.629 | inactive: 0.622 | inactive: 0.502 | inactive: 0.432 | inactive: 0.649 |

| Binder | enrichment score (SHP2 C-SH2 domain E139D) | enrichment score [1] | enrichment score (SHP2 N-SH2 domain L43F) | enrichment score (SHP2 N-SH2 domain T42A) | enrichment score (SHP2 N-SH2 domain T52S) | enrichment score [2] |
| --- | --- | --- | --- | --- | --- | --- |
| B20 | inactive: 0.644 | inactive: 0.914 | inactive: 0.884 | inactive: 0.73 | inactive: 0.751 | inactive: 0.677 |
| B21 | inactive: 0.665 | inactive: 0.514 | inactive: 0.607 | inactive: 0.573 | inactive: 0.738 | inactive: 0.877 |
| B22 | inactive: 0.705 | inactive: 0.521 | inactive: 0.428 | inactive: 0.473 | inactive: 0.506 | inactive: 0.696 |
| B23 | inactive: 0.451 | inactive: 0.364 | inactive: 0.447 | inactive: 0.452 | inactive: 0.336 | inactive: 0.496 |
| B24 | inactive: 0.552 | inactive: 0.552 | inactive: 0.438 | inactive: 0.519 | inactive: 0.512 | inactive: 0.572 |
| B25 | inactive: 0.591 | inactive: 0.624 | inactive: 0.549 | inactive: 0.583 | inactive: 0.636 | inactive: 0.561 |
| B26 | inactive: 0.943 | inactive: 0.924 | inactive: 0.816 | inactive: 0.882 | inactive: 1 | inactive: 0.827 |
| B27 | inactive: 1.59 | inactive: 2.14 | inactive: 1.62 | inactive: 1.87 | inactive: 1.7 | inactive: 1.47 |
| B28 | inactive: 0.872 | inactive: 0.709 | inactive: 0.812 | inactive: 0.707 | inactive: 0.807 | inactive: 0.775 |
| B29 | inactive: 1.88 | inactive: 1.28 | inactive: 1.58 | inactive: 1.44 | inactive: 1.57 | inactive: 1.39 |
| B30 | active: 3.27 | active: 3.6 | inactive: 2.98 | inactive: 2.47 | inactive: 3.04 | inactive: 2.96 |
| B31 | active: 4.26 | active: 3.56 | active: 3.72 | inactive: 3.02 | inactive: 3.16 | active: 4.53 |
| B32 | inactive: 1.07 | inactive: 1.16 | inactive: 1.02 | inactive: 0.675 | inactive: 0.889 | inactive: 1.52 |
| B33 | inactive: 0.969 | inactive: 0.708 | inactive: 0.667 | inactive: 0.827 | inactive: 0.797 | inactive: 0.738 |
| B34 | inactive: 0.795 | inactive: 0.74 | inactive: 0.912 | inactive: 0.712 | inactive: 0.811 | inactive: 1.06 |
| B35 | inactive: 1.41 | inactive: 1.55 | inactive: 2.73 | inactive: 1.73 | inactive: 2.89 | inactive: 1.82 |
| B36 | active: 3.29 | inactive: 3.02 | active: 4.97 | inactive: 3.19 | active: 5.05 | inactive: 3.13 |
| B37 | inactive: 3.19 | inactive: 3.08 | active: 3.99 | inactive: 2.38 | active: 3.61 | inactive: 3.12 |
